The IC50 comes from the fitted curve, where viability falls to half of the control; a fit beyond the top or the lowest dose is shown as a bound at that dose. AUC, from the same fit, is the share of area under the viability curve across the 256-fold dose range; values near 1 show little effect. For part of these data: A top dose marked as inferred was derived from the fitted curves, not read from the paper. For part of these data: Drugs with an entry number were screened twice under separate entries, and the two screens often disagree.
Legend:
Assay in all cases: Viability of human cancer cell lines after 72 h of drug (GDSC screen)
[1] = compound: CC1=C(/C=C/C(C)=C/C=C/C(C)=C/C(=O)O)C(C)(C)CCC1 [Tretinoin]; conditions: top dose 10 µM; top dose inferred
Experimental: (§1)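 Human cancer cell lines in 384-well plates, medium with 10% serum, drug for 72 h over a 256-fold dose range (nine 2-fold or five 4-fold steps up to the top dose). Adherent lines were fixed and stained with the nucleic acid dye Syto60, suspension lines read with resazurin; signal relative to control wells, capped at 0 and 100%. One two-parameter sigmoid per drug and line, fitted in a mixed model over all curves with the slope shared within a line.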

[2] = compound: COc1ccc(N(C(=O)Oc2c(C)cccc2C)c2ccnc(Nc3ccc(N4CCN(C)CC4)cc3)n2)c(OC)c1 [WH-4-023]; conditions: top dose 5.12 µM; top dose inferred
Experimental: as §1

[3] = compound: O=C(NCCCNc1nc(Nc2cccc(NC(=O)N3CCCC3)c2)ncc1I)c1cccs1 [BX-795]; conditions: top dose 5 µM; top dose inferred
Experimental: as §1

[4] = compound: CCn1c(-c2nonc2N)nc2c(C#CC(C)(C)O)ncc(OC[C@H]3CCCNC3)c21 [GSK690693]; conditions: top dose 10.24 µM; top dose inferred
Experimental: as §1

[5] = compound: COc1cc2c(NC3CCN(C(C)C)CC3)nc(C3CCCCC3)nc2cc1OCCCN1CCCC1 [UNC0638]
Experimental: as §1

[6] = compound: Cc1cccc(-c2[nH]c(C(C)(C)C)nc2-c2ccc3c(c2)OCO3)n1 [SB-505124]; conditions: top dose 10 µM; top dose inferred
Experimental: as §1

[7] = compound: Oc1cccc(-c2nc(N3CCOCC3)c3oc4ncccc4c3n2)c1 [PI-103]; conditions: top dose 10.24 µM
Experimental: as §1

[8] = top dose 20 µM, screen: GDSC drug entry 1236, top dose inferred
[9] = top dose 40 µM, screen: GDSC drug entry 245

Cell Line | AUC [1] | IC50 [1] [µM] | AUC [2] | IC50 [2] [µM] | AUC [3] | IC50 [3] [µM] | AUC [4] | IC50 [4] [µM] | AUC [5, 8] | IC50 [5, 8] [µM] | AUC [5, 9] | IC50 [5, 9] [µM] | AUC [6] | IC50 [6] [µM] | AUC [7] | IC50 [7] [µM]
BC-1 (B-cell lymphoma, suspension) | 0.951 | > 10 | 0.973 | > 5.12 | 0.937 | > 5 | 0.942 | > 10.2 | 0.791 | 7.56 | 0.713 | 8.96 | 0.953 | > 10 | 0.354 | 0.271
BT-474 (breast, adherent) | 0.983 | > 10 | 0.976 | > 5.12 | 0.974 | > 5 | – | – | 0.815 | 12.7 | 0.655 | 7.1 | 0.924 | > 10 | 0.407 | 0.344
DJM-1 (skin, adherent) | 0.949 | > 10 | 0.966 | > 5.12 | 0.893 | > 5 | 0.989 | > 10.2 | – | – | 0.989 | > 40 | – | – | 0.865 | 8.9
GCIY (stomach, adherent) | 0.98 | > 10 | 0.651 | 0.887 | 0.907 | > 5 | 0.971 | > 10.2 | – | – | 0.964 | > 40 | – | – | 0.751 | 3.75
HH (T-cell leukaemia, suspension) | 0.672 | 2.23 | 0.877 | > 5.12 | 0.798 | 3.33 | 0.656 | 2.01 | 0.735 | 7.47 | 0.474 | 2.07 | 0.922 | > 10 | – | –
JSC-1 (B-cell lymphoma, suspension) | 0.973 | > 10 | 0.985 | > 5.12 | 0.84 | 3.38 | 0.925 | > 10.2 | – | – | 0.503 | 2.55 | – | – | 0.313 | 0.193
K5 (thyroid, adherent) | 0.988 | > 10 | 0.93 | > 5.12 | 0.858 | 3.82 | 0.968 | > 10.2 | 0.871 | 17.5 | 0.797 | 17.9 | 0.972 | > 10 | – | –
LU-65 (large cell lung carcinoma, suspension) | 0.983 | > 10 | 0.975 | > 5.12 | 0.987 | > 5 | 0.963 | > 10.2 | – | – | – | – | 0.979 | > 10 | 0.494 | 0.613
MHH-NB-11 (neuroblastoma, adherent) | 0.956 | > 10 | 0.852 | 4.56 | 0.826 | 3.43 | 0.973 | > 10.2 | – | – | 0.745 | 13.7 | – | – | 0.471 | 0.53
MY-M12 (leukaemia, suspension) | 0.978 | > 10 | 0.249 | 0.0545 | 0.799 | 2.77 | 0.807 | 6.12 | – | – | 0.444 | 1.72 | – | – | 0.308 | 0.172
NALM-6 (B-cell leukaemia, suspension) | 0.978 | > 10 | 0.902 | 4.78 | 0.588 | 0.522 | 0.25 | 0.142 | 0.776 | 6.71 | 0.42 | 1.57 | 0.974 | > 10 | – | –
NB17 (neuroblastoma, adherent) | 0.973 | > 10 | 0.818 | 3.44 | 0.865 | > 5 | 0.801 | 5.9 | – | – | 0.724 | 12.1 | – | – | 0.446 | 0.445
NB69 (neuroblastoma, adherent) | 0.976 | > 10 | 0.963 | > 5.12 | 0.709 | 1.12 | 0.981 | > 10.2 | 0.809 | 9 | 0.931 | > 40 | – | – | 0.596 | 1.14
NCI-H64 (small cell lung carcinoma, suspension) | 0.996 | > 10 | 0.996 | > 5.12 | 0.934 | 4.73 | 0.01 | < 0.04 | – | – | 0.759 | 10.8 | – | – | 0.146 | 0.0814
NCI-H510A (small cell lung carcinoma, semi-adherent) | 0.979 | > 10 | 0.968 | > 5.12 | 0.897 | > 5 | 0.99 | > 10.2 | – | – | 0.725 | 10.2 | – | – | 0.884 | 9.45
NCI-H1417 (small cell lung carcinoma, suspension) | 0.89 | > 10 | 0.97 | > 5.12 | 0.809 | 3.23 | 0.943 | > 10.2 | 0.477 | 1.07 | 0.632 | 6.21 | 0.905 | > 10 | – | –
RCC10RGB (kidney, adherent) | 0.972 | > 10 | 0.451 | 0.207 | 0.931 | > 5 | 0.972 | > 10.2 | – | – | 0.889 | > 40 | – | – | 0.759 | 7.79
SUP-B15 (lymphoblastic leukaemia, suspension) | 0.91 | > 10 | 0.266 | 0.0714 | 0.719 | 1.26 | 0.905 | > 10.2 | – | – | 0.565 | 3.73 | – | – | 0.172 | 0.0685
SW954 (urogenital system, adherent) | 0.961 | > 10 | 0.381 | 0.149 | 0.852 | 3.94 | 0.908 | > 10.2 | – | – | 0.879 | > 40 | – | – | 0.753 | 3.45
SW982 (soft tissue, adherent) | 0.977 | > 10 | 0.621 | 0.698 | 0.677 | 0.994 | 0.976 | > 10.2 | 0.807 | 10.6 | 0.796 | 19.4 | 0.922 | > 10 | – | –

— the supplement of paper PMC4967469
